# In US20240294593A1 (Genentech, published 2024):
# Target: T1, human PD-1-His (human, UniProt Q15116 part only, limits assumed)
# T1 construct: Antigen of the Octet assays; not shown: His tag
# Test: Octet
# T1 sequence (Q15116 25-167 limits assumed): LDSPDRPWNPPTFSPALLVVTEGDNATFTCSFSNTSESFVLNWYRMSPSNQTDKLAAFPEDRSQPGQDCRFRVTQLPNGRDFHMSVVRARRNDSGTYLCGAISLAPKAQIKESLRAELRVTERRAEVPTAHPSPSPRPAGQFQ
Binder,Kd [nM],koff [s⁻¹],kon [M⁻¹ s⁻¹]
"H1.19_L1.1 (XENP30275) (Fc fusion, also called mAb C H1.19_L1.1 x IL-15(D30N/N65D)) chain 1: ITCPPPMSVEHADIWVKSYSLYSRERYICNSGFKRKAGTSSLTECVLNKATNVAHWTTPSLKCIRGGGGSGGGGSGGGGSGGGGSGGGGS[not shown - about 120 residues]EPKSSDKTHTCPPCPAPPVAGPSVFLFPPKPKDTLMISRTPEVTCVVVDVKHEDPEVKFNWYVDGVEVHNAKTKPREEEYNSTYRVVSVLTVLHQDWLNGKEYKCKVSNKALPAPIEKTISKAKGQPREPQVYTLPPSREEMTKNQVSLTCDVSGFYPSDIAVEWESDGQPENNYKTTPPVLDSDGSFFLYSKLTVDKSRWEQGDVFSCSVMHEALHNHYTQKSLSLSPGK chain 2: EVQLVESGGGLVQPGGSLRLSCAASGFTFSSLGMHWVRQAPGKGLEWVSYISSGSSIIYYADSVKGRFTISRDNAKNSLYLQMNSLRAEDTAVYYCARGGRLVWSPDYWGQGTLVTVSSASTKGPSVFPLAPSSKSTSGGTAALGCLVKDYFPEPVTVSWNSGALTSGVHTFPAVLQSSGLYSLSSVVTVPSSSLGTQTYICNVNHKPSNTKVDKKVEPKSCDKTHTCPPCPAPPVAGPSVFLFPPKPKDTLMISRTPEVTCVVVDVKHEDPEVKFNWYVDGVEVHNAKTKPREEQYNSTYRVVSVLTVLHQDWLNGKEYKCKVSNKALPAPIEKTISKAKGQPREPQVYTLPPSREQMTKNQVKLTCLVKGFYPSDIAVEWESNGQPENNYKTTPPVLDSDGSFFLYSKLTVDKSRWQQGNVFSCSVMHEALHNHYTQKSLSLSPGK chain 3: DIVMTQSPDSLAVSLGERATINCKSSQSLLHSGNQKNYLTWYQQKPGQPPKLLIYWASTRESGVPDRFTGSGSGTDFTLTISSLQAEDVAVYYCQNDYSYPFTFGSGTKLEIKRTVAAPSVFIFPPSDEQLKSGTASVVCLLNNFYPREAKVQWKVDNALQSGNSQESVTEQDSKDSTYSLSSTLTLSKADYEKHKVYACEVTHQGLSSPVTKSFNRGEC",4.35,0.000272,62600
"H1.169_L1.1 (XENP30273) (Fc fusion, also called mAb C H1.169_L1.1 x IL-15(N4D/N65D)) chain 1: ITCPPPMSVEHADIWVKSYSLYSRERYICNSGFKRKAGTSSLTECVLNKATNVAHWTTPSLKCIRGGGGSGGGGSGGGGSGGGGSGGGGS[not shown - about 120 residues]EPKSSDKTHTCPPCPAPPVAGPSVFLFPPKPKDTLMISRTPEVTCVVVDVKHEDPEVKFNWYVDGVEVHNAKTKPREEEYNSTYRVVSVLTVLHQDWLNGKEYKCKVSNKALPAPIEKTISKAKGQPREPQVYTLPPSREEMTKNQVSLTCDVSGFYPSDIAVEWESDGQPENNYKTTPPVLDSDGSFFLYSKLTVDKSRWEQGDVFSCSVMHEALHNHYTQKSLSLSPGK chain 2: EVQLVESGGGLVQPGGSLRLSCAASGFTFSSLGMHWVRQAPGKGLEWVSYISGGSSIIYYADSVKGRFTISRDNAKNSLYLQMNSLRAEDTAVYYCARGGRLVWSPDYWGQGTLVTVSSASTKGPSVFPLAPSSKSTSGGTAALGCLVKDYFPEPVTVSWNSGALTSGVHTFPAVLQSSGLYSLSSVVTVPSSSLGTQTYICNVNHKPSNTKVDKKVEPKSCDKTHTCPPCPAPPVAGPSVFLFPPKPKDTLMISRTPEVTCVVVDVKHEDPEVKFNWYVDGVEVHNAKTKPREEQYNSTYRVVSVLTVLHQDWLNGKEYKCKVSNKALPAPIEKTISKAKGQPREPQVYTLPPSREQMTKNQVKLTCLVKGFYPSDIAVEWESNGQPENNYKTTPPVLDSDGSFFLYSKLTVDKSRWQQGNVFSCSVMHEALHNHYTQKSLSLSPGK chain 3: DIVMTQSPDSLAVSLGERATINCKSSQSLLHSGNQKNYLTWYQQKPGQPPKLLIYWASTRESGVPDRFTGSGSGTDFTLTISSLQAEDVAVYYCQNDYSYPFTFGSGTKLEIKRTVAAPSVFIFPPSDEQLKSGTASVVCLLNNFYPREAKVQWKVDNALQSGNSQESVTEQDSKDSTYSLSSTLTLSKADYEKHKVYACEVTHQGLSSPVTKSFNRGEC",3.1,0.000193,62000
"H1.132_L1.135 (XENP30486) (Fc fusion, also called mAb C H1.132_L1.135 x IL-15(N4D/N65D)) chain 1: ITCPPPMSVEHADIWVKSYSLYSRERYICNSGFKRKAGTSSLTECVLNKATNVAHWTTPSLKCIRGGGGSGGGGSGGGGSGGGGSGGGGS[not shown - about 120 residues]EPKSSDKTHTCPPCPAPPVAGPSVFLFPPKPKDTLMISRTPEVTCVVVDVKHEDPEVKFNWYVDGVEVHNAKTKPREEEYNSTYRVVSVLTVLHQDWLNGKEYKCKVSNKALPAPIEKTISKAKGQPREPQVYTLPPSREEMTKNQVSLTCDVSGFYPSDIAVEWESDGQPENNYKTTPPVLDSDGSFFLYSKLTVDKSRWEQGDVFSCSVMHEALHNHYTQKSLSLSPGK chain 2: EVQLVESGGGLVQPGGSLRLSCAASGFTFSSFGMHWVRQAPGKGLEWVSYISSGSSIIYYADSVKGRFTISRDNAKNSLYLQMNSLRAEDTAVYYCARGGWLVWSPDYWGQGTLVTVSSASTKGPSVFPLAPSSKSTSGGTAALGCLVKDYFPEPVTVSWNSGALTSGVHTFPAVLQSSGLYSLSSVVTVPSSSLGTQTYICNVNHKPSNTKVDKKVEPKSCDKTHTCPPCPAPPVAGPSVFLFPPKPKDTLMISRTPEVTCVVVDVKHEDPEVKFNWYVDGVEVHNAKTKPREEQYNSTYRVVSVLTVLHQDWLNGKEYKCKVSNKALPAPIEKTISKAKGQPREPQVYTLPPSREQMTKNQVKLTCLVKGFYPSDIAVEWESNGQPENNYKTTPPVLDSDGSFFLYSKLTVDKSRWQQGNVFSCSVMHEALHNHYTQKSLSLSPGK chain 3: DIVMTQSPDSLAVSLGERATINCKSSQSLLHSGNQYNYLTWYQQKPGQPPKLLIYWASTRESGVPDRFTGSGSGTDFTLTISSLQAEDVAVYYCQNDYSYPFTFGSGTKLEIKRTVAAPSVFIFPPSDEQLKSGTASVVCLLNNFYPREAKVQWKVDNALQSGNSQESVTEQDSKDSTYSLSSTLTLSKADYEKHKVYACEVTHQGLSSPVTKSFNRGEC",0.828,0.000112,136000

# Further lines, results first:
Kd [nM],koff [s⁻¹],kon [M⁻¹ s⁻¹],Binder
1.24,0.000118,95000,"H1.175_L1.1 (XENP30274) (Fc fusion, also called mAb C H1.175_L1.1 x IL-15(N4D/N65D)) chain 1: ITCPPPMSVEHADIWVKSYSLYSRERYICNSGFKRKAGTSSLTECVLNKATNVAHWTTPSLKCIRGGGGSGGGGSGGGGSGGGGSGGGGS[not shown - about 120 residues]EPKSSDKTHTCPPCPAPPVAGPSVFLFPPKPKDTLMISRTPEVTCVVVDVKHEDPEVKFNWYVDGVEVHNAKTKPREEEYNSTYRVVSVLTVLHQDWLNGKEYKCKVSNKALPAPIEKTISKAKGQPREPQVYTLPPSREEMTKNQVSLTCDVSGFYPSDIAVEWESDGQPENNYKTTPPVLDSDGSFFLYSKLTVDKSRWEQGDVFSCSVMHEALHNHYTQKSLSLSPGK chain 2: EVQLVESGGGLVQPGGSLRLSCAASGFTFSSLGMHWVRQAPGKGLEWVSYISGGSSIIYYADSVKGRFTISRDNAKNSLYLQMNSLRAEDTAVYYCARGGWLVWSPDYWGQGTLVTVSSASTKGPSVFPLAPSSKSTSGGTAALGCLVKDYFPEPVTVSWNSGALTSGVHTFPAVLQSSGLYSLSSVVTVPSSSLGTQTYICNVNHKPSNTKVDKKVEPKSCDKTHTCPPCPAPPVAGPSVFLFPPKPKDTLMISRTPEVTCVVVDVKHEDPEVKFNWYVDGVEVHNAKTKPREEQYNSTYRVVSVLTVLHQDWLNGKEYKCKVSNKALPAPIEKTISKAKGQPREPQVYTLPPSREQMTKNQVKLTCLVKGFYPSDIAVEWESNGQPENNYKTTPPVLDSDGSFFLYSKLTVDKSRWQQGNVFSCSVMHEALHNHYTQKSLSLSPGK chain 3: DIVMTQSPDSLAVSLGERATINCKSSQSLLHSGNQKNYLTWYQQKPGQPPKLLIYWASTRESGVPDRFTGSGSGTDFTLTISSLQAEDVAVYYCQNDYSYPFTFGSGTKLEIKRTVAAPSVFIFPPSDEQLKSGTASVVCLLNNFYPREAKVQWKVDNALQSGNSQESVTEQDSKDSTYSLSSTLTLSKADYEKHKVYACEVTHQGLSSPVTKSFNRGEC"
2.84,0.0002,70200,"H1_L1.135 (XENP30444) (Fc fusion, also called mAb C H1_L1.135 x IL-15(D30N/N65D)) chain 1: ITCPPPMSVEHADIWVKSYSLYSRERYICNSGFKRKAGTSSLTECVLNKATNVAHWTTPSLKCIRGGGGSGGGGSGGGGSGGGGSGGGGS[not shown - about 120 residues]EPKSSDKTHTCPPCPAPPVAGPSVFLFPPKPKDTLMISRTPEVTCVVVDVKHEDPEVKFNWYVDGVEVHNAKTKPREEEYNSTYRVVSVLTVLHQDWLNGKEYKCKVSNKALPAPIEKTISKAKGQPREPQVYTLPPSREEMTKNQVSLTCDVSGFYPSDIAVEWESDGQPENNYKTTPPVLDSDGSFFLYSKLTVDKSRWEQGDVFSCSVMHEALHNHYTQKSLSLSPGK chain 2: EVQLVESGGGLVQPGGSLRLSCAASGFTFSSFGMHWVRQAPGKGLEWVSYISSGSSIIYYADSVKGRFTISRDNAKNSLYLQMNSLRAEDTAVYYCARGGRLVWSPDYWGQGTLVTVSSASTKGPSVFPLAPSSKSTSGGTAALGCLVKDYFPEPVTVSWNSGALTSGVHTFPAVLQSSGLYSLSSVVTVPSSSLGTQTYICNVNHKPSNTKVDKKVEPKSCDKTHTCPPCPAPPVAGPSVFLFPPKPKDTLMISRTPEVTCVVVDVKHEDPEVKFNWYVDGVEVHNAKTKPREEQYNSTYRVVSVLTVLHQDWLNGKEYKCKVSNKALPAPIEKTISKAKGQPREPQVYTLPPSREQMTKNQVKLTCLVKGFYPSDIAVEWESNGQPENNYKTTPPVLDSDGSFFLYSKLTVDKSRWQQGNVFSCSVMHEALHNHYTQKSLSLSPGK chain 3: DIVMTQSPDSLAVSLGERATINCKSSQSLLHSGNQYNYLTWYQQKPGQPPKLLIYWASTRESGVPDRFTGSGSGTDFTLTISSLQAEDVAVYYCQNDYSYPFTFGSGTKLEIKRTVAAPSVFIFPPSDEQLKSGTASVVCLLNNFYPREAKVQWKVDNALQSGNSQESVTEQDSKDSTYSLSSTLTLSKADYEKHKVYACEVTHQGLSSPVTKSFNRGEC"
0.697,8.33e-05,120000,"H1.175_L1.135 (XENP30488) (Fc fusion, also called mAb C H1.175_L1.135 x IL-15(N4D/N65D)) chain 1: ITCPPPMSVEHADIWVKSYSLYSRERYICNSGFKRKAGTSSLTECVLNKATNVAHWTTPSLKCIRGGGGSGGGGSGGGGSGGGGSGGGGS[not shown - about 120 residues]EPKSSDKTHTCPPCPAPPVAGPSVFLFPPKPKDTLMISRTPEVTCVVVDVKHEDPEVKFNWYVDGVEVHNAKTKPREEEYNSTYRVVSVLTVLHQDWLNGKEYKCKVSNKALPAPIEKTISKAKGQPREPQVYTLPPSREEMTKNQVSLTCDVSGFYPSDIAVEWESDGQPENNYKTTPPVLDSDGSFFLYSKLTVDKSRWEQGDVFSCSVMHEALHNHYTQKSLSLSPGK chain 2: EVQLVESGGGLVQPGGSLRLSCAASGFTFSSLGMHWVRQAPGKGLEWVSYISGGSSIIYYADSVKGRFTISRDNAKNSLYLQMNSLRAEDTAVYYCARGGWLVWSPDYWGQGTLVTVSSASTKGPSVFPLAPSSKSTSGGTAALGCLVKDYFPEPVTVSWNSGALTSGVHTFPAVLQSSGLYSLSSVVTVPSSSLGTQTYICNVNHKPSNTKVDKKVEPKSCDKTHTCPPCPAPPVAGPSVFLFPPKPKDTLMISRTPEVTCVVVDVKHEDPEVKFNWYVDGVEVHNAKTKPREEQYNSTYRVVSVLTVLHQDWLNGKEYKCKVSNKALPAPIEKTISKAKGQPREPQVYTLPPSREQMTKNQVKLTCLVKGFYPSDIAVEWESNGQPENNYKTTPPVLDSDGSFFLYSKLTVDKSRWQQGNVFSCSVMHEALHNHYTQKSLSLSPGK chain 3: DIVMTQSPDSLAVSLGERATINCKSSQSLLHSGNQYNYLTWYQQKPGQPPKLLIYWASTRESGVPDRFTGSGSGTDFTLTISSLQAEDVAVYYCQNDYSYPFTFGSGTKLEIKRTVAAPSVFIFPPSDEQLKSGTASVVCLLNNFYPREAKVQWKVDNALQSGNSQESVTEQDSKDSTYSLSSTLTLSKADYEKHKVYACEVTHQGLSSPVTKSFNRGEC"
